The record followed here is paper doi:10.1101/2024.03.19.585761 (bioRxiv, 2024).

This series deals with the molecule itself. As to the kind of experiment: SEC-MALS. (In general: In gel filtration, larger molecules generally elute earlier.)

B1: Recombinant STREP-thioredoxin-HIS (rTRX) (natural protein)
chain: not shown
For B1, the stoichiometry N (usually a count of units in the complex or per binding partner) stood at 2.
